Test results from the supplement of paper PMC12067230.
This is a noisy data set.

assay: amyloid nucleation score relative to library mode (yeast Sup35 reporter selection) (log enrichment difference); higher = more amyloid nucleation; sequences are the first 22 residues of the Bri2 peptide extended by up to 12 random residues; details: random library (experiment): 2;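 active = nucleation score significantly above 0 at FDR 0.05; inactive = not significantly above 0 or absent from output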
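Note: [psi-pin-] Saccharomyces cerevisiae expressing SupN fusions, induced by 100 µM Cu2SO4, selected 7 d at 30 °C without adenine and uracil, scored by deep sequencing of output versus input.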

Question: For EASNCFAIRHFENKFAVETLICDFIILRRGVGRI, which amyloid nucleation score is on record?
Answer: inactive

Question: With EASNCFAIRHFENKFAVETLICDFIRHSRTVRWL as the sequence, how does the amyloid nucleation score read?
Answer: inactive

Question: For EASNCFAIRHFENKFAVETLICDFKVGCVSMLTG, which amyloid nucleation score is on record?
Answer: 2.64

Question: For EASNCFAIRHFENKFAVETLICDFLLSHRFCRYY, which amyloid nucleation score is on record?
Answer: inactive

Question: With EASNCFAIRHFENKFAVETLICDFLNT as the sequence, how does the amyloid nucleation score read?
Answer: inactive

Question: Which amyloid nucleation score does the source give for EASNCFAIRHFENKFAVETLICDFLQGKTLVRWT here?
Answer: inactive

Question: Which amyloid nucleation score does the source give for EASNCFAIRHFENKFAVETLICDFSKLP here?
Answer: 0.163

Question: With EASNCFAIRHFENKFAVETLICDFYIWACIKRLL as the sequence, how does the amyloid nucleation score read?
Answer: inactive

Question: For EASNCFAIRHFENKFAVETLICDFYM, which amyloid nucleation score is on record?
Answer: inactive

Question: With EASNCFAIRHFENKFAVETLICDGASW as the sequence, how does the amyloid nucleation score read?
Answer: inactive

Question: For EASNCFAIRHFENKFAVETLICDGCC, which amyloid nucleation score is on record?
Answer: inactive

Question: Which amyloid nucleation score does the source give for EASNCFAIRHFENKFAVETLICDGELFLGHQCS here?
Answer: inactive

Question: With EASNCFAIRHFENKFAVETLICDGFILNHFIWIL as the sequence, how does the amyloid nucleation score read?
Answer: -0.262

Question: With EASNCFAIRHFENKFAVETLICDGHNIVSVRWVW as the sequence, how does the amyloid nucleation score read?
Answer: inactive

Question: For EASNCFAIRHFENKFAVETLICDGIRLFGRVMWS, which amyloid nucleation score is on record?
Answer: inactive

Question: With EASNCFAIRHFENKFAVETLICDGKNLYFVNGLF as the sequence, how does the amyloid nucleation score read?
Answer: 3.63

Question: For EASNCFAIRHFENKFAVETLICDGKSWMCTFCLG, which amyloid nucleation score is on record?
Answer: 5.81

Question: With EASNCFAIRHFENKFAVETLICDGLCFLMSMPSC as the sequence, how does the amyloid nucleation score read?
Answer: inactive

Question: For EASNCFAIRHFENKFAVETLICDGLCTYCLKRDL, which amyloid nucleation score is on record?
Answer: inactive

Question: For EASNCFAIRHFENKFAVETLICDGNSFWNFHWWL, which amyloid nucleation score is on record?
Answer: 4.96

Question: Which amyloid nucleation score does the source give for EASNCFAIRHFENKFAVETLICDGSRL here?
Answer: 0.693

Question: For EASNCFAIRHFENKFAVETLICDGWFLPYVWSEW, which amyloid nucleation score is on record?
Answer: inactive

Question: For EASNCFAIRHFENKFAVETLICDHI, which amyloid nucleation score is on record?
Answer: inactive

Question: Which amyloid nucleation score does the source give for EASNCFAIRHFENKFAVETLICDHVFAYVCSARK here?
Answer: 7.73

Question: For EASNCFAIRHFENKFAVETLICDHVIRNRHDRGG, which amyloid nucleation score is on record?
Answer: inactive

Question: For EASNCFAIRHFENKFAVETLICDIAHKFVDFYSR, which amyloid nucleation score is on record?
Answer: inactive

Question: Which amyloid nucleation score does the source give for EASNCFAIRHFENKFAVETLICDICENRHVWNVN here?
Answer: inactive

Question: With EASNCFAIRHFENKFAVETLICDIFKLRRYLMEA as the sequence, how does the amyloid nucleation score read?
Answer: inactive

Question: Which amyloid nucleation score does the source give for EASNCFAIRHFENKFAVETLICDIFYSYD here?
Answer: inactive

Question: Which amyloid nucleation score does the source give for EASNCFAIRHFENKFAVETLICDIGGLKFVYWNR here?
Answer: inactive

same assay, conditions: random library (experiment): 3

Question: For EASNCFAIRHFENKFAVETLICDESVA, which amyloid nucleation score is on record?
Answer: inactive

Question: Which amyloid nucleation score does the source give for EASNCFAIRHFENKFAVETLICDESVNVPRNMDV here?
Answer: inactive

Question: For EASNCFAIRHFENKFAVETLICDEVSLQGFEVWW, which amyloid nucleation score is on record?
Answer: inactive

Question: With EASNCFAIRHFENKFAVETLICDEWCPWMGGQAE as the sequence, how does the amyloid nucleation score read?
Answer: inactive

Question: Which amyloid nucleation score does the source give for EASNCFAIRHFENKFAVETLICDEWSSRLIGVRG here?
Answer: inactive

Question: Which amyloid nucleation score does the source give for EASNCFAIRHFENKFAVETLICDFAPNCEQSMDR here?
Answer: inactive

Question: Which amyloid nucleation score does the source give for EASNCFAIRHFENKFAVETLICDFCCRHVAIPRV here?
Answer: inactive

Question: With EASNCFAIRHFENKFAVETLICDFCTVMGDDVSL as the sequence, how does the amyloid nucleation score read?
Answer: 5.66

Question: With EASNCFAIRHFENKFAVETLICDFHFVCLASTCG as the sequence, how does the amyloid nucleation score read?
Answer: inactive

Question: For EASNCFAIRHFENKFAVETLICDFMKLMYRVAWG, which amyloid nucleation score is on record?
Answer: inactive

Question: For EASNCFAIRHFENKFAVETLICDFQWHYLRSCLG, which amyloid nucleation score is on record?
Answer: inactive

Question: Which amyloid nucleation score does the source give for EASNCFAIRHFENKFAVETLICDFYRHMVGSLCV here?
Answer: inactive

Question: For EASNCFAIRHFENKFAVETLICDGCSRVRWVKCE, which amyloid nucleation score is on record?
Answer: inactive

Question: Which amyloid nucleation score does the source give for EASNCFAIRHFENKFAVETLICDGHPIK here?
Answer: inactive

Question: Which amyloid nucleation score does the source give for EASNCFAIRHFENKFAVETLICDGIMVDTMMNGV here?
Answer: inactive

Question: With EASNCFAIRHFENKFAVETLICDGRHDN as the sequence, how does the amyloid nucleation score read?
Answer: inactive

Question: For EASNCFAIRHFENKFAVETLICDGSARRMHRVII, which amyloid nucleation score is on record?
Answer: -0.0179

Question: With EASNCFAIRHFENKFAVETLICDGSIRSRKTLNG as the sequence, how does the amyloid nucleation score read?
Answer: -0.253

Question: With EASNCFAIRHFENKFAVETLICDGTALRAHMRCP as the sequence, how does the amyloid nucleation score read?
Answer: inactive

Question: With EASNCFAIRHFENKFAVETLICDGTYGCKPKGAE as the sequence, how does the amyloid nucleation score read?
Answer: inactive

Question: For EASNCFAIRHFENKFAVETLICDGWGGKWRRGPR, which amyloid nucleation score is on record?
Answer: 4.32

Question: With EASNCFAIRHFENKFAVETLICDGWGT as the sequence, how does the amyloid nucleation score read?
Answer: inactive

Question: For EASNCFAIRHFENKFAVETLICDGWTCVIQFDAE, which amyloid nucleation score is on record?
Answer: 3.14

Question: Which amyloid nucleation score does the source give for EASNCFAIRHFENKFAVETLICDGYRDVISGLCL here?
Answer: 1.57

Question: For EASNCFAIRHFENKFAVETLICDHHRRAMPRLQW, which amyloid nucleation score is on record?
Answer: inactive

Question: With EASNCFAIRHFENKFAVETLICDHMDPV as the sequence, how does the amyloid nucleation score read?
Answer: 1.47

Question: With EASNCFAIRHFENKFAVETLICDHVNSSWARLYL as the sequence, how does the amyloid nucleation score read?
Answer: inactive

Question: For EASNCFAIRHFENKFAVETLICDIAFVYGWEIGN, which amyloid nucleation score is on record?
Answer: 5.65

Question: For EASNCFAIRHFENKFAVETLICDIFS, which amyloid nucleation score is on record?
Answer: inactive
